{"source": "patent US12186283B2", "about": "“Bismuth-thiol compositions and methods of use” (Microbion Corporation, priority 2018, dated 2025)", "system": "Pseudomonas aeruginosa biofilms (MR14, AG14)", "settings": "MR14, MDR CF-isolate of P. aeruginosa; at 25 ng/ml", "data": [{"compound": "CC(S)C(C)S.[Bi]", "note": "(stereo not shown) [BisBDT, bismuth-2,3-butanedithiol]", "values": [{"measurement": "reduction in biofilm cell viability", "value": 2, "unit": "logs"}]}]}
